# In the supplement of paper PMC8728848:
# This is one part of the list.
# B1: Siglec-7-SA-PE-180 (Homo sapiens), Q9Y286 (protein)
# chain: MLLLLLLPLLWGRERVEGQKSNRKDYSLTMQSSVTVQEGMCVHVRCSFSYPVDSQTDSDPVHGYWFRAGNDISWKAPVATNNPAWAVQEETRDRFHLLGDPQTKNCTLSIRDARMSDAGRYFFRMEKGNIKWNYKYDQLSVNVTALTHRPNILIPGTLESGCFQNLTCSVPWACEQGTPPMISWMGTSVSPLHPSTTRSSVLTLIPQPQHHGTSLTCQVTLPGAGVTTNRTIQLNVSYPPQNLTVTVFQGEGTASTALGNSSSLSVLEGQSLRLVCAVDSNPPARLSWTWRSLTLYPSQPSNPLVLELQVHLGDEGEFTCRAQNSLGSQHVSLNLSLQQEYTGKMRPVSGVLLGAVGGAGATALVFLSFCVIFIVVRSCRKKSARPAADVGDIGMKDANTIRGSASQGNLTESWADDNPRHHGLAAHSSGEEREIQYAPLSFHKGEPQDLSGQEATNNEYSEIKIPK
# Columns and labels:
# Experiment in all cases: glycan array binding signal (z-score within array); higher = stronger binding
# Conditions in all cases: glycan notation: IUPAC condensed, linker removed
# [1] = target: GlcNAc(b1-3)Gal(b1-4)GlcNAc(b1-3)Gal(b1-4)GlcNAc(b1-3)Gal(b1-4)GlcNAc(b1-2)Man(a1-3)[GlcNAc(b1-3)Gal(b1-4)GlcNAc(b1-3)Gal(b1-4)GlcNAc(b1-3)Gal(b1-4)GlcNAc(b1-2)Man(a1-6)]Man(b1-4)GlcNAc(b1-4)GlcNAc
# Procedure, shortened: (§1)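 The Consortium for Functional Glycomics database supplied 3228 glycan arrays, of which those lacking an available protein sequence were dropped. The binding signal, a within-array Z-score, was averaged across arrays of the same protein sequence and across linkers. Negative scores can be read as non-binding.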
# [2] = target: GlcNAc(b1-3)Gal(b1-4)GlcNAc(b1-3)Gal(b1-4)GlcNAc(b1-3)Gal(b1-4)GlcNAc(b1-2)Man(a1-3)[GlcNAc(b1-3)Gal(b1-4)GlcNAc(b1-3)Gal(b1-4)GlcNAc(b1-3)Gal(b1-4)GlcNAc(b1-2)Man(a1-6)]Man(b1-4)GlcNAc(b1-4)[Fuc(a1-6)]GlcNAc
# Procedure, shortened: as §1
# [3] = target: GlcNAc(b1-3)Gal(b1-4)GlcNAc(b1-3)Gal(b1-4)GlcNAc(b1-3)Gal(b1-4)GlcNAc(b1-2)[GlcNAc(b1-3)Gal(b1-4)GlcNAc(b1-3)Gal(b1-4)GlcNAc(b1-3)Gal(b1-4)GlcNAc(b1-6)]Man(a1-6)[GlcNAc(b1-3)Gal(b1-4)GlcNAc(b1-3)Gal(b1-4)GlcNAc(b1-3)Gal(b1-4)GlcNAc(b1-2)Man(a1-3)]Man(b1-4)GlcNAc(b1-4)[Fuc(a1-6)]GlcNAc
# Procedure, shortened: as §1
# [4] = target: GlcNAc(b1-3)Gal(b1-4)GlcNAc(b1-3)Gal(b1-4)GlcNAc(b1-3)Gal(b1-4)GlcNAc(b1-3)Gal(b1-4)GlcNAc(b1-2)Man(a1-3)[GlcNAc(b1-3)Gal(b1-4)GlcNAc(b1-3)Gal(b1-4)GlcNAc(b1-3)Gal(b1-4)GlcNAc(b1-3)Gal(b1-4)GlcNAc(b1-2)Man(a1-6)]Man(b1-4)GlcNAc(b1-4)GlcNAc
# Procedure, shortened: as §1
# [5] = target: GlcNAc(b1-3)Gal(b1-4)GlcNAc(b1-3)Gal(b1-4)GlcNAc(b1-3)Gal(b1-4)GlcNAc(b1-3)Gal(b1-4)GlcNAc(b1-2)Man(a1-3)[GlcNAc(b1-3)Gal(b1-4)GlcNAc(b1-3)Gal(b1-4)GlcNAc(b1-3)Gal(b1-4)GlcNAc(b1-3)Gal(b1-4)GlcNAc(b1-2)Man(a1-6)]Man(b1-4)GlcNAc(b1-4)[Fuc(a1-6)]GlcNAc
# Procedure, shortened: as §1
# [6] = target: GlcNAc(b1-3)Gal(b1-4)GlcNAc(b1-3)Gal(b1-4)GlcNAc(b1-3)Gal(b1-4)GlcNAc(b1-3)Gal(b1-4)GlcNAc(b1-2)[GlcNAc(b1-3)Gal(b1-4)GlcNAc(b1-3)Gal(b1-4)GlcNAc(b1-3)Gal(b1-4)GlcNAc(b1-3)Gal(b1-4)GlcNAc(b1-6)]Man(a1-6)[GlcNAc(b1-3)Gal(b1-4)GlcNAc(b1-3)Gal(b1-4)GlcNAc(b1-3)Gal(b1-4)GlcNAc(b1-3)Gal(b1-4)GlcNAc(b1-2)Man(a1-3)]Man(b1-4)GlcNAc(b1-4)[Fuc(a1-6)]GlcNAc
# Procedure, shortened: as §1
# [7] = target: GlcNAc(b1-3)Gal(b1-4)GlcNAc(b1-3)Gal(b1-4)GlcNAc(b1-3)GalNAc
# Procedure, shortened: as §1
# [8] = target: GlcNAc(b1-3)Gal(b1-4)GlcNAc(b1-3)GalNAc
# Procedure, shortened: as §1
# [9] = target: GlcNAc(b1-3)Gal(b1-4)GlcNAc(b1-3)[GlcNAc(b1-3)Gal(b1-4)GlcNAc(b1-3)]GalNAc
# Procedure, shortened: as §1
# [10] = target: GlcNAc(b1-3)Gal(b1-4)GlcNAc(b1-6)[Gal(b1-3)]GalNAc
# Procedure, shortened: as §1
# [11] = target: GlcNAc(b1-3)Gal(b1-4)GlcNAc(b1-6)[GlcNAc(b1-3)Gal(b1-3)]GalNAc
# Procedure, shortened: as §1
# [12] = target: GlcNAc(b1-3)Gal(b1-4)GlcNAc(b1-6)[GlcNAc(b1-3)]Gal(b1-4)GlcNAc
# Procedure, shortened: as §1
# GlcNAc(b1-3)GalNAc = target: GlcNAc(b1-3)GalNAc
# Procedure, shortened: as §1
# GlcNAc(b1-3)Man = target: GlcNAc(b1-3)Man
# Procedure, shortened: as §1
# [13] = target: GlcNAc(b1-3)[GlcNAc(b1-4)][GlcNAc(b1-6)]GlcNAc
# Procedure, shortened: as §1
# [14] = target: GlcNAc(b1-3)[GlcNAc(b1-6)]Gal(b1-4)GlcNAc
# Procedure, shortened: as §1
# [15] = target: GlcNAc(b1-3)[GlcNAc(b1-6)]GalNAc
# Procedure, shortened: as §1
# [16] = target: GlcNAc(b1-4)Gal(b1-4)GlcNAc
# Procedure, shortened: as §1
# GlcNAc(b1-4)GlcNAc = target: GlcNAc(b1-4)GlcNAc
# Procedure, shortened: as §1
# [17] = target: GlcNAc(b1-4)GlcNAc(b1-4)GlcNAc
# Procedure, shortened: as §1
# [18] = target: GlcNAc(b1-4)GlcNAc(b1-4)GlcNAc(b1-4)GlcNAc(b1-4)GlcNAc
# Procedure, shortened: as §1
# [19] = target: GlcNAc(b1-4)GlcNAc(b1-4)GlcNAc(b1-4)GlcNAc(b1-4)GlcNAc(b1-4)GlcNAc
# Procedure, shortened: as §1
# [20] = target: GlcNAc(b1-4)[GlcNAc(b1-6)]GalNAc
# Procedure, shortened: as §1
# [21] = target: GlcNAc(b1-6)Gal(b1-4)GlcNAc
# Procedure, shortened: as §1
# GlcNAc(b1-6)GalNAc = target: GlcNAc(b1-6)GalNAc
# Procedure, shortened: as §1
# GlcNAc3Prop(b1-4)GlcNAc = target: GlcNAc3Prop(b1-4)GlcNAc
# Procedure, shortened: as §1
# [22] = target: GlcNAc6S(b1-3)Gal(b1-4)GlcNAc
# Procedure, shortened: as §1
# Kdn(a2-3)Gal(b1-3)GalNAc = target: Kdn(a2-3)Gal(b1-3)GalNAc
# Procedure, shortened: as §1
# Kdn(a2-3)Gal(b1-3)GlcNAc = target: Kdn(a2-3)Gal(b1-3)GlcNAc
# Procedure, shortened: as §1
# Kdn(a2-3)Gal(b1-4)Glc = target: Kdn(a2-3)Gal(b1-4)Glc
# Procedure, shortened: as §1
# Kdn(a2-3)Gal(b1-4)GlcNAc = target: Kdn(a2-3)Gal(b1-4)GlcNAc
# Procedure, shortened: as §1
# [23] = target: Kdn(a2-3)Gal(b1-4)[Fuc(a1-3)]GlcNAc
# Procedure, shortened: as §1
# Kdn(a2-6)Gal(b1-4)GlcNAc = target: Kdn(a2-6)Gal(b1-4)GlcNAc
# Procedure, shortened: as §1
# [24] = target: Man(a1-2)Man(a1-2)Man(a1-3)Man
# Procedure, shortened: as §1
# [25] = target: Man(a1-2)Man(a1-2)Man(a1-6)[Man(a1-3)]Man
# Procedure, shortened: as §1
# Man(a1-2)Man(a1-3)Man = target: Man(a1-2)Man(a1-3)Man
# Procedure, shortened: as §1
# [26] = target: Man(a1-2)Man(a1-3)[Man(a1-2)Man(a1-6)]Man
# Procedure, shortened: as §1
# [27] = target: Man(a1-2)Man(a1-3)[Man(a1-2)Man(a1-6)]Man(a1-6)[Man(a1-2)Man(a1-2)Man(a1-3)]Man
# Procedure, shortened: as §1
# [28] = target: Man(a1-2)Man(a1-3)[Man(a1-2)Man(a1-6)]Man(a1-6)[Man(a1-2)Man(a1-2)Man(a1-3)]Man(b1-4)GlcNAc(b1-4)GlcNAc
# Procedure, shortened: as §1
# [29] = target: Man(a1-2)Man(a1-3)[Man(a1-6)]Man(a1-6)[Man(a1-2)Man(a1-3)]Man(b1-4)GlcNAc(b1-4)GlcNAc
# Procedure, shortened: as §1
# [30] = target: Man(a1-2)Man(a1-6)[Man(a1-3)]Man(a1-6)[Man(a1-2)Man(a1-2)Man(a1-3)]Man
# Procedure, shortened: as §1
# [31] = target: Man(a1-2)Man(a1-6)[Man(a1-3)]Man(a1-6)[Man(a1-2)Man(a1-2)Man(a1-3)]Man(b1-4)GlcNAc(b1-4)GlcNAc
# Procedure, shortened: as §1
# Man(a1-3)[Man(a1-6)]Man = target: Man(a1-3)[Man(a1-6)]Man
# Procedure, shortened: as §1
# [32] = target: Man(a1-3)[Man(a1-6)]Man(a1-6)[Man(a1-2)Man(a1-3)]Man(b1-4)GlcNAc(b1-4)GlcNAc
# Procedure, shortened: as §1
# [33] = target: Man(a1-3)[Man(a1-6)]Man(a1-6)[Man(a1-3)]Man
# Procedure, shortened: as §1
binder,measurement,setting,value
B1,glycan array binding signal (z-score),[1],0.059
same,glycan array binding signal (z-score),[2],0.303
same,glycan array binding signal (z-score),[3],0.228
same,glycan array binding signal (z-score),[4],0.071
same,glycan array binding signal (z-score),[5],-0.56
same,glycan array binding signal (z-score),[6],0.683
same,glycan array binding signal (z-score),[7],-0.429
same,glycan array binding signal (z-score),[8],-0.385
same,glycan array binding signal (z-score),[9],-0.227
same,glycan array binding signal (z-score),[10],-0.55
same,glycan array binding signal (z-score),[11],-0.394
same,glycan array binding signal (z-score),[12],-0.191
same,glycan array binding signal (z-score),GlcNAc(b1-3)GalNAc,-0.221
same,glycan array binding signal (z-score),GlcNAc(b1-3)Man,-0.226
same,glycan array binding signal (z-score),[13],1.28
same,glycan array binding signal (z-score),[14],-0.346
same,glycan array binding signal (z-score),[15],-0.27
same,glycan array binding signal (z-score),[16],-0.096
same,glycan array binding signal (z-score),GlcNAc(b1-4)GlcNAc,-0.385
same,glycan array binding signal (z-score),[17],-0.388
same,glycan array binding signal (z-score),[18],-0.342
same,glycan array binding signal (z-score),[19],-0.501
same,glycan array binding signal (z-score),[20],-0.237
same,glycan array binding signal (z-score),[21],-0.316
same,glycan array binding signal (z-score),GlcNAc(b1-6)GalNAc,-0.376
same,glycan array binding signal (z-score),GlcNAc3Prop(b1-4)GlcNAc,0.06
same,glycan array binding signal (z-score),[22],-0.527
same,glycan array binding signal (z-score),Kdn(a2-3)Gal(b1-3)GalNAc,0.057
same,glycan array binding signal (z-score),Kdn(a2-3)Gal(b1-3)GlcNAc,-0.171
same,glycan array binding signal (z-score),Kdn(a2-3)Gal(b1-4)Glc,0.225
same,glycan array binding signal (z-score),Kdn(a2-3)Gal(b1-4)GlcNAc,-0.083
same,glycan array binding signal (z-score),[23],-0.164
same,glycan array binding signal (z-score),Kdn(a2-6)Gal(b1-4)GlcNAc,-0.461
same,glycan array binding signal (z-score),[24],-0.434
same,glycan array binding signal (z-score),[25],-0.31
same,glycan array binding signal (z-score),Man(a1-2)Man(a1-3)Man,-0.394
same,glycan array binding signal (z-score),[26],-0.408
same,glycan array binding signal (z-score),[27],-0.299
same,glycan array binding signal (z-score),[28],-0.021
same,glycan array binding signal (z-score),[29],-0.186
same,glycan array binding signal (z-score),[30],-0.187
same,glycan array binding signal (z-score),[31],-0.298
same,glycan array binding signal (z-score),Man(a1-3)[Man(a1-6)]Man,-0.286
same,glycan array binding signal (z-score),[32],-0.284
same,glycan array binding signal (z-score),[33],-0.406
